IC50 is the fitted dose that halves viability relative to control wells, and lower means more sensitive; fits outside the tested doses are given as limits. The AUC spans the tested range (256-fold, ending at the top dose) of the same fit; the more sensitive the line, the further below 1. For part of these data: A top dose marked as inferred is not printed in the source and was worked back from the curve model. For part of these data: Where an entry number is given, a second screen of the drug exists; the two often differ.
Experiments:
Assay in all cases: Viability of human cancer cell lines after 72 h of drug (GDSC screen)
[1] = compound: Cc1sc2c(c1C)C(c1ccc(Cl)cc1)=N[C@@H](CC(=O)OC(C)(C)C)c1nnc(C)n1-2 [JQ1]
Method: (§1)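 Human cancer cell lines in 384-well plates, medium with 10% serum, drug for 72 h over a 256-fold dose range (nine 2-fold or five 4-fold steps up to the top dose). Adherent lines were fixed and stained with the nucleic acid dye Syto60, suspension lines read with resazurin; signal relative to control wells, capped at 0 and 100%. One two-parameter sigmoid per drug and line, fitted in a mixed model over all curves with the slope shared within a line.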

[2] = compound: CC(=O)O[C@@]12CO[C@@H]1C[C@H](O)[C@@]1(C)C(=O)[C@H](O)C3=C(C)[C@@H](OC(=O)[C@H](O)[C@@H](NC(=O)OC(C)(C)C)c4ccccc4)C[C@@](O)([C@@H](OC(=O)c4ccccc4)[C@H]21)C3(C)C [Docetaxel]; conditions: top dose 0.0125 µM
Method: as §1

[3] = compound: COCC[n+]1c2c(n(Cc3cnccn3)c1C)C(=O)c1ccccc1C2=O [YM155]; conditions: top dose 5.12 µM
Method: as §1

[4] = compound: C[C@]1(O)C[C@@H](c2nc(-c3ccc4ccc(-c5ccccc5)nc4c3)c3c(N)nccn32)C1 [OSI-906]; conditions: top dose 2.56 µM; top dose inferred
Method: as §1

[5] = compound: O=C(/C=C/c1cccc(S(=O)(=O)Nc2ccccc2)c1)NO [Belinostat]; conditions: top dose 20 µM; top dose inferred
Method: as §1

[6] = compound: CCOc1nc(NC(=O)Cc2cc(OC)ccc2OC)cc(N)c1C#N [JNK Inhibitor VIII]; conditions: top dose 10 µM; top dose inferred
Method: as §1

[7] = compound: c1ccc2c(CCNc3ccc(Nc4ccncc4)cc3)c[nH]c2c1 [JNJ-26854165]; conditions: top dose 10 µM
Method: as §1

[8] = compound: CN1CCN(c2ccc([N+](=O)[O-])c3no[n+]([O-])c23)CC1 [NSC-207895]; conditions: top dose 20 µM; top dose inferred
Method: as §1

[9] = compound: Cc1ccc(C(=O)N(CCCN)[C@@H](c2nc3cc(Cl)ccc3c(=O)n2Cc2ccccc2)C(C)C)cc1 [SB-715992]; conditions: top dose 0.128 µM; top dose inferred
Method: as §1

[10] = compound: CC1(C)CNc2cc(NC(=O)c3cccnc3NCc3ccncc3)ccc21 [AMG-706]; conditions: top dose 2 µM; top dose inferred
Method: as §1

[11] = compound: COC(=O)[C@H](CCSC)NC(=O)c1ccc(NC[C@@H](N)CS)cc1-c1ccccc1 [FTI-277]; conditions: top dose 1.024 µM; top dose inferred
Method: as §1

[12] = top dose 1 µM, screen: GDSC drug entry 1218, top dose inferred
[13] = top dose 2.56 µM, screen: GDSC drug entry 163

Row | Cell Line | AUC [1, 12] | IC50 [1, 12] | AUC [1, 13] | IC50 [1, 13] | AUC [2] | IC50 [2] | AUC [3] | IC50 [3] | AUC [4] | IC50 [4] | AUC [5] | IC50 [5] | AUC [6] | IC50 [6] | AUC [7] | IC50 [7] | AUC [8] | IC50 [8] | AUC [9] | IC50 [9] | AUC [10] | IC50 [10] | AUC [11] | IC50 [11]
1 | C-33-A (cervix, adherent) | 0.861 | 854 nM | 0.787 | 1120 nM | 0.695 | 2.76 nM | 0.029 | < 20 nM | 0.967 | > 2560 nM | 0.218 | 186 nM | 0.973 | > 10000 nM | 0.887 | > 10000 nM | 0.586 | 2150 nM | 0.732 | 36.7 nM | 0.971 | > 2000 nM | 0.974 | > 1020 nM
2 | EFM-192A (breast, adherent) | 0.983 | > 1000 nM | 0.705 | 649 nM | 0.891 | > 12.5 nM | 0.104 | < 20 nM | 0.883 | > 2560 nM | 0.6 | 2420 nM | 0.986 | > 10000 nM | 0.92 | > 10000 nM | 0.973 | > 20000 nM | 0.953 | > 128 nM | 0.986 | > 2000 nM | 0.822 | 687 nM
3 | COLO-679 (melanoma, adherent) | 0.977 | > 1000 nM | 0.353 | 59.4 nM | 0.722 | 3.64 nM | 0.165 | 25.8 nM | 0.864 | > 2560 nM | 0.766 | 8270 nM | 0.984 | > 10000 nM | 0.842 | 8330 nM | 0.98 | > 20000 nM | 0.919 | > 128 nM | 0.984 | > 2000 nM | 0.91 | > 1020 nM
4 | RH-41 (rhabdomyosarcoma, adherent) | 0.992 | > 1000 nM | 0.818 | 1160 nM | 0.627 | 1.64 nM | 0.019 | < 20 nM | 0.614 | 311 nM | 0.629 | 2660 nM | 0.991 | > 10000 nM | 0.936 | > 10000 nM | 0.89 | 16400 nM | 0.766 | 40.1 nM | 0.968 | > 2000 nM | 0.989 | > 1020 nM
5 | DK-MG (glioma, adherent) | 0.848 | > 1000 nM | 0.923 | > 2560 nM | 0.899 | > 12.5 nM | 0.077 | < 20 nM | 0.846 | > 2560 nM | 0.613 | 2970 nM | 0.959 | > 10000 nM | 0.825 | > 10000 nM | 0.883 | > 20000 nM | 0.974 | > 128 nM | 0.907 | > 2000 nM | 0.96 | > 1020 nM
